# The list shows a part of the results. These are further read-outs of the screen, such as a control signal, another cell line or another target. No call is given for them.
# How the values were obtained:
# Assay in all cases: Primary Screen for Target Class Profiling of Small Molecule Inhibitors of Methyltransferases
# [1] = molecular target: Glycine N-methyltransferase (Homo sapiens) (UniProt Q14749); conditions: purified enzyme, MTase-Glo SAH luminescence; measured here: GNMT inhibition; at 40 µM; stronger effect = lower value
# Procedure, shortened: (§1)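 Each enzyme was assayed with SAM and its substrate. SAH formation detected by MTase-Glo luminescence; single-point 40 uM screen[…].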
# [2] = molecular target: Guanidinoacetate N-methyltransferase (Homo sapiens) (UniProt Q14353); conditions: purified enzyme, MTase-Glo SAH luminescence; measured here: GAMT inhibition; at 40 µM; stronger effect = lower value
# Procedure, shortened: as §1
# [3] = molecular target: Histamine N-methyltransferase (Homo sapiens) (UniProt P50135); conditions: purified enzyme, MTase-Glo SAH luminescence; measured here: HNMT inhibition; at 40 µM; stronger effect = lower value
# Procedure, shortened: as §1
# [4] = molecular target: Nicotinamide N-methyltransferase (Homo sapiens) (UniProt P40261); conditions: purified enzyme, MTase-Glo SAH luminescence; measured here: NNMT inhibition; at 40 µM; stronger effect = lower value
# Procedure, shortened: as §1
# [5] = molecular target: Phenylethanolamine N-methyltransferase (Homo sapiens) (UniProt P11086); conditions: purified enzyme, MTase-Glo SAH luminescence; measured here: PNMT inhibition; at 40 µM; stronger effect = lower value
# Procedure, shortened: as §1
# On the % scale 0 is the no-effect control and ±100 the full control effect.
Structure (SMILES),"activity change, negative = inhibition [1]","activity change, negative = inhibition [2]","activity change, negative = inhibition [3]","activity change, negative = inhibition [4]","activity change, negative = inhibition [5]"
CC(C)NC(=O)c1ccc2c(=O)n(Cc3ccccc3)c3nnc(SCc4ccccc4)n3c2c1,5.89%,0%,8.12%,5.31%,6.38%
CC1=CC(=O)C2C(C)(C)CC(O)CC2(C)C1CO (stereo not given),6.31%,6.28%,8.63%,-5.05%,6.21%
NC(=O)c1cccc(N)c1,-0.931%,7.31%,2.92%,-4.92%,4.74%
O=C1NC(O)=NC1(c1ccccc1)c1ccccc1,8.03%,10.3%,11.7%,-6.44%,4%
CC1(C(=O)NC2CCCCCCC2)Cn2c(cc3sccc32)C(=O)N1CCc1ccccc1 (stereo not given),4.77%,0%,9.62%,1.37%,1.57%
Cc1cnccc1CN(C)C(=O)c1cc(COc2ccc(-n3cncn3)cc2)on1,-8.4%,-10.1%,-6.05%,-12.3%,-3.59%
CC(C)CNC(=O)c1ccc2c(=O)n(CC(C)C)c3nn(CC(=O)c4ccccc4)c(=O)n3c2c1,6.97%,1.06%,10.2%,4.92%,9.1%
CCOC(=O)c1cc2n(n1)CC(C)(C(=O)NCCCOC)N(c1ccc(F)cc1C)C2=O (stereo not given),6.85%,1.14%,7.47%,8.26%,3.92%
O=C(c1ccc2c(c1)OCCO2)N1CCC(Cn2cc(CCO)nn2)CC1,-0.397%,-2.79%,2.13%,-5.6%,2.47%
Cc1ccsc1CCNC(=O)Cn1c(=O)oc2cc(S(=O)(=O)NCc3ccccc3)ccc21,-0.896%,3.63%,-5.85%,-6.59%,-11.8%
CN1C(=O)c2cc(C(=O)Nc3cccc(Cl)c3)nn2CC1(C)C(=O)NC1CCCCC1 (stereo not given),-4.44%,-0.725%,0.572%,2.66%,0.388%
CCOc1ccc(CNC(=O)c2cc3n(n2)CC(C)(C(=O)NCCC(C)C)N(C)C3=O)cc1 (stereo not given),0.853%,0%,0.927%,8.01%,2.62%
CNC(=O)Nc1cccn2nc(-c3ccccc3)nc12,-11.6%,-13.2%,-6.68%,-11.3%,-11.5%
CC(C)CC(=O)NCCn1cc(C(=O)O)c(=O)cc1C(O)c1ccccc1 (stereo not given),-0.944%,0.385%,3.35%,-11.3%,4.63%
CN(Cc1cnn(-c2ccc(F)cc2)c1)c1cc(C2CC(O)C2)ncn1 (stereo not given),-2%,0.68%,-2.71%,-1.84%,5.37%
COc1cc2nc(N3CCC(N4CCCCC4)CC3)nc(NC3CCCCCC3)c2cc1OC,-39.9%,-14%,-75.6%,-61.4%,-35%
CCCN1C(=O)c2c(C(=O)NCc3ccccc3Cl)ncn2CC1(C)C(=O)NCc1ccc(OC)cc1 (stereo not given),1.26%,3.2%,3.93%,1.68%,3.27%
CC1=CC(=O)CC(C)(C)[C@H]1/C=C/C(CO)O[C@@H]1O[C@H](CO)[C@@H](O)[C@H](O)[C@H]1O (stereo not given in full),3.41%,0.004%,2.61%,-13.2%,3.55%
CN1C(=O)c2cc(C(=O)NCc3ccc(Cl)cc3)nn2CC1(C)C(=O)NC1CCCCCC1 (stereo not given),4.43%,3.69%,7.38%,9.52%,3.78%
C[C@@H]1[C@H](O)[C@@H]2OC(=O)C3=C2[C@H](CCC3)[C@@]12C[C@@H](c1ccoc1)OC2=O,-0.569%,2.53%,6.54%,-8.27%,3.56%
C=Cc1ccc(O[C@@H]2O[C@H](CO[C@@H]3O[C@@H](C)[C@H](O)[C@@H](O)[C@H]3O)[C@@H](O)[C@H](O)[C@H]2O)cc1,3.97%,4.48%,12%,-8.72%,6.2%

Structure (SMILES),"activity change, negative = inhibition [1]","activity change, negative = inhibition [2]","activity change, negative = inhibition [3]","activity change, negative = inhibition [4]","activity change, negative = inhibition [5]"
Cc1ccc(S(=O)(=O)N2CCN(C3CCN(CCC(C)C)C3=O)CC2)cc1F (stereo not given),-0.412%,-1.45%,0.899%,-4.67%,-11.8%
COCCCN1C(=O)c2cc3sccc3n2CC1(C)C(=O)NC1CCCCC1 (stereo not given),-5.16%,2.61%,-2.93%,-11%,-1.18%
CC(C)c1nc(-c2ccc(C(=O)N[C@@H]3COCC[C@@H]3OCC3CC3)cc2)no1,-3.54%,-6.73%,-5.46%,-11.6%,-9.39%
CC(C)CN1CCN(C(=O)C2CCc3ncc(-c4ccc(F)cc4)n3C2)CC1 (stereo not given),-2.11%,0.234%,-9.01%,-4.87%,-3.57%
C=C(C)C1CC(O)C(C)C12CC(O)C1(C)OC1C2O (stereo not given),-1.35%,1.67%,0.79%,-9.52%,4.02%
O=C(NCC(F)F)c1cc(-c2cccs2)c2cccn2n1,-18.9%,-12.5%,-11.6%,-31.5%,-15.2%
COCCN1CCCC1c1nc(C2CN(C(=O)c3ccccc3OC)C2)no1 (stereo not given),-2.69%,-2.49%,-6.29%,-3.41%,-6.93%
Cc1cc(CN2C[C@@H](COCC3CC3)[C@H](c3ccccn3)C2)n(C)n1,-3.54%,-1.52%,0.925%,-3.48%,1.62%
CSc1ccc(CCN2C(=O)c3ccc(-c4ccco4)n3CC2(C)C(=O)NC2CCCCC2)cc1 (stereo not given),-27.4%,-0.296%,1.67%,-7.22%,-2.01%
CCC(C)NC(=O)c1ccc2c(=O)n(C)c3nnc(SCC(=O)Nc4ccc(OC)cc4)n3c2c1 (stereo not given),5.23%,0%,5.11%,5.76%,7.4%
COc1ccc2nc3ccc(OC)cc3c(SCCCN)c2c1,,-1.62%,,-17.3%,-4.52%
CN1CCN(C(=O)[C@@H]2C[C@H](C(=O)O)CN(Cc3cccc(F)c3)C2)CC1,-5.01%,-8.09%,-5.14%,-9.08%,-9.92%
CC(C)n1c(=O)c2ccc(C(=O)NC3CCCCC3)cc2n2c(=O)n(Cc3cccc(F)c3)nc12,2.06%,1.8%,6.28%,1.22%,-1.28%
CC(NCc1ccc(OCc2cccc(F)c2)cc1)C(N)=O (stereo not given),-1.13%,,8.42%,,
C=C1CC[C@H]2C(=C)CC[C@H]3C(=C)C(=O)O[C@@H]3[C@@H]12,-3.09%,-2.65%,7.43%,-14.4%,0.574%
CCOC(=O)c1cc2n(n1)CC(C)(C(=O)NC1CCCCCC1)N(c1ccc(F)cc1)C2=O (stereo not given),5.12%,0.594%,-2.83%,9.06%,4.23%
COc1ccc(CN2C(=O)c3cc4sccc4n3CC2(C)C(=O)NC2CCCCC2)cc1OC (stereo not given),3.71%,0%,5.67%,-28%,4.42%
COc1ccc(NS(=O)(=O)c2cc3c(cc2C)n(C)c(=O)n3C)cc1Cl,0.021%,0.227%,-3.31%,-7.83%,-0.95%
Cn1cnc(S(=O)(=O)N2CC(c3nc(-c4ccncc4)no3)C2)c1,0.064%,0.456%,1.26%,2.16%,2.71%
Cc1ccc(CN2CCC(CNc3cc(C4CC(O)C4)ncn3)CC2)o1 (stereo not given),-1.15%,0.101%,-17.3%,-4.05%,-2.81%
COCC1CN(C2CCC2)CC12CCN(Cc1scnc1C)CC2 (stereo not given),-9.49%,-12.7%,-9.16%,-18.2%,-8.36%

Structure (SMILES),"activity change, negative = inhibition [1]","activity change, negative = inhibition [2]","activity change, negative = inhibition [3]","activity change, negative = inhibition [4]","activity change, negative = inhibition [5]"
Cc1cn([C@H]2CC(N=[N+]=[N-])[C@@H](CO)O2)c(=O)[nH]c1=O (stereo not given in full),4.47%,11.7%,12.4%,-5.52%,2.37%
Cc1cc(C)cc(NC(=O)c2cc3n(n2)CC(C)(C(=O)NC2CCCCCC2)N(C)C3=O)c1 (stereo not given),6.61%,0.692%,7.63%,-1.04%,3.73%
Cc1cc(C(=O)N2CCC3(CC2)CC(N(Cc2ccc(F)cc2)C2CC2)CCO3)n(C)n1 (stereo not given),-1.14%,-1.56%,0.848%,-10.6%,-0.537%
Cc1ccc(-c2cc(C(=O)NCc3cccs3)nn3cnnc23)cc1,-6.1%,-3.76%,-3.96%,-12.3%,-11%
Cc1ccc(NC(=O)N2CCC(c3nc(CCOCC4CC4)no3)C2)cc1C (stereo not given),-3.4%,0.726%,0.408%,-2.91%,1.14%
O=S(=O)(NCCn1c(CCc2ccccc2)nc2ccccc21)c1ccccc1,-1.91%,3.96%,-2.92%,-6.21%,2.19%
CCOC(=O)c1cc2n(n1)CC(C)(C(=O)NCc1ccccc1)N(c1cccc(SC)c1)C2=O (stereo not given),-1.86%,1.47%,-5.84%,-8.19%,-4.76%
COC(=O)c1ccc(NC(=O)N2Cc3c(sc4c3CCCC4)-n3cccc3C2c2cc(F)cc(F)c2)cc1 (stereo not given),0.802%,0.749%,-2.75%,-5.22%,5.33%
Cc1cccc(-c2cn[nH]c2C2CCN(C(=O)c3cc(=O)[nH]c(=O)[nH]3)CC2)c1,-8.15%,-8.41%,-2.17%,-13.3%,-8.22%
COc1cc(O)cc(/C=C/c2cccc(O)c2)c1,-7.6%,-7.24%,0.913%,-27.7%,-1.7%
O=C(NC1CC(=O)N(CCCc2ccccc2)C1)c1ccoc1 (stereo not given),-6.24%,-12.7%,-6.91%,-14.6%,-10.6%
COc1ccc(C(=O)NCCn2c(C)cnc2-c2ccccc2)cn1,-4%,-8.06%,-5.78%,-1.78%,-8.65%
CNC(=O)[C@@H]1C[C@H](Oc2ccccc2)CN1S(=O)(=O)c1ccc2c(c1)CCC2,-2%,-1.65%,1.17%,-0.642%,0.646%
COc1ccc(N2C(=O)CSc3c(c4ccccc4n3C)C2C(=O)NCCCOC(C)C)cc1 (stereo not given),-1.2%,-5.64%,2.23%,-3.53%,-0.921%
COCCOc1ccc(N2CCN(CCn3ncc4c3nc(N)n3nc(-c5ccco5)nc43)CC2)cc1,-1.68%,-9.09%,-1.95%,-18.8%,-6.23%
Cc1c(Cl)cccc1NC(=O)c1ncn2c1C(=O)N(C1CC1)C(C)(C(=O)NCCCOC(C)C)C2 (stereo not given),-2.4%,0%,10.5%,4.63%,2.11%
CCN1C(=O)c2cc(C(=O)Nc3ccc(C(C)C)cc3)nn2CC1(C)C(=O)NC1CCCC1 (stereo not given),-4.21%,-0.103%,-10.9%,-2.03%,-3.04%
COc1ccc(NS(=O)(=O)c2cc3c(cc2C)n(C)c(=O)n3C)cc1OC,3.4%,0%,7.75%,-0.513%,3.73%
C[S+](=O)([O-])NCc1nnc2n1C(C(=O)NCc1ccc(Cl)cc1)CC2 (stereo not given),-7.72%,-7.34%,-10.3%,-16.7%,-5.15%
Cc1cc(OCc2nnc(SC3CCCC3)n2-c2cccnc2)ccc1-c1ccc(S(C)(=O)=O)cc1,-0.523%,-10.5%,0.554%,-34.6%,-9.6%
